Hit rate of the full screen: of about 310,000 compounds, about 2,200 (0.71%) showed an effect of 50% or more. The effect is printed as a negative number. This is one part of the list.

For the assay, the target named is human ether-à-go-go-related gene (hERG) potassium channel (human, UniProt Q12809). Description: primary screen, population patch clamp on CHO cells stably expressing hERG.
Sequence of human ether-à-go-go-related gene (hERG) potassium channel (Q12809 whole entry, looked up): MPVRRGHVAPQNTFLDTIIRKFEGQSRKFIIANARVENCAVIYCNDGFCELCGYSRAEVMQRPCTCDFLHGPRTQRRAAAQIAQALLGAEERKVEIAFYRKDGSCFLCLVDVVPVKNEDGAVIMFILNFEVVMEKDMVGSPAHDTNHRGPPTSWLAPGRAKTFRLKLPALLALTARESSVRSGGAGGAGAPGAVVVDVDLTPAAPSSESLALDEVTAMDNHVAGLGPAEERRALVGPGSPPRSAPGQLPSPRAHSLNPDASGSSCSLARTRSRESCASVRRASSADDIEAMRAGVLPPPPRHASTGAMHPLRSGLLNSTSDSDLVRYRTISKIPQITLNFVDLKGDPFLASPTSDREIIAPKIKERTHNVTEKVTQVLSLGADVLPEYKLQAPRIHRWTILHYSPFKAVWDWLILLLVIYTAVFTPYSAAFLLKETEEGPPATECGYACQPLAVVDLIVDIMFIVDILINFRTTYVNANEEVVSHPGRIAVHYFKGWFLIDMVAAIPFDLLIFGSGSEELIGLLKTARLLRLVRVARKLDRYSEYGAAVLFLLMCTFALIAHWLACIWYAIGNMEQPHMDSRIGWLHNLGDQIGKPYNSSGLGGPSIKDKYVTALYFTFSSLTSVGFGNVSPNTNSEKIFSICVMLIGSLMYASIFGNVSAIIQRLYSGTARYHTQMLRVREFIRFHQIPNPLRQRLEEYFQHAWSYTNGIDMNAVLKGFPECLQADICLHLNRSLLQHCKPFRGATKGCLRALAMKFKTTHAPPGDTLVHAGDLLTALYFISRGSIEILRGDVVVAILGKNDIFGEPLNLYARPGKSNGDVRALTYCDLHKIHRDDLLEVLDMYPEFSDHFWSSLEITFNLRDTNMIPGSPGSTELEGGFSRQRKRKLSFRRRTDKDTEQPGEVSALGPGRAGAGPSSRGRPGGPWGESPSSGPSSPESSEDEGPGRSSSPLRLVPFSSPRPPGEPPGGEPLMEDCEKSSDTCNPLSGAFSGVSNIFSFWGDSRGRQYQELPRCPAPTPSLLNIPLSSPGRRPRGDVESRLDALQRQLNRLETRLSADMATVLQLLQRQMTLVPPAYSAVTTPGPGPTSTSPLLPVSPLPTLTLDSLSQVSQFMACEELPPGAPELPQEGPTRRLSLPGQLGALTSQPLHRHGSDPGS
`Cn1c(=O)[nH]c(=O)c2c1nc(CN1CCOCC1)n2Cc1ccccc1`: the “hERG current change (%, negative = inhibition) at 1uM” value is on record as -19.2%.
The figure for `CCN1C(=O)C(O)(CC(=O)c2cc(C)ccc2C)c2ccccc21` (stereo not shown) is 6.47%.
For the compound `N/C(=N\c1nc2c(c(=O)[nH]1)CCC2)Nc1ccccc1C(F)(F)F`, the “hERG current change (%, negative = inhibition) at 1uM” value is given as 10.1%.
For `N#CCc1ccc(NC(=O)Nc2cccc(Cl)c2)cc1` the value was 17%; for `CCc1nnc(NC(=O)c2cccc(S(=O)(=O)N3CC(c4ccccc4)CC3=O)c2)s1` (stereo not shown), 8.5%.
The figure for `CCCn1nnc(NC(=O)c2ccc(OC)cc2)n1` is 4.46%; for `CN1CCN(Cc2c(O)ccc3cc(Br)ccc23)CC1` it is 6.01%; for `O=C(CCn1nnc2ccccc21)Nc1nnc(COc2ccc(F)cc2)s1` it is 5.44%.
Regarding `O=C(CSc1ccc(Br)cc1)NCC(c1cccs1)N1CCOCC1` (stereo not shown), the “hERG current change (%, negative = inhibition) at 1uM” value came out at 7.42%.
For `CC(C)NC(=O)[C@@H]1CSC2c3ccccc3C(=O)N21` (stereo partly shown) the value was 2.74%.
For `O=C(N/C(=C/c1ccc(F)cc1)C(=O)N1CCCC1)c1ccccc1` the value was 25.3%; for `COc1ccc(Cc2nnc(NC(=O)c3ccccc3)s2)cc1OC`, 12.1%; for `O=C(CNC(=O)c1cc(Cl)nc2ccccc12)Nc1ccccc1Br`, -0.485%.
Consider `COCCNC(=S)NC12CC3CC(CC(C3)C1)C2`, for which the “hERG current change (%, negative = inhibition) at 1uM” value is reported as 11.3%.
For `CC(C)CCN1CCN(Cc2cccn2-c2ccccn2)CC1CCO` (stereo not shown) the value was -36.6%; for `COc1ccc2nc(NCc3cccnc3)sc2c1`, 8.85%; for `Cc1noc(C)c1C1(O)CCCCCCCCCCC1`, 17.4%.
`Cc1ccccc1N(C)S(=O)(=O)c1nnc(NC(=O)c2ccco2)s1`: the “hERG current change (%, negative = inhibition) at 1uM” value came out at 7.69%.
The figure for `COCCNC(=S)N1CCN(c2nc(-c3cccc(OC)c3)cs2)CC1` is 12.8%; for `COc1ccc2[nH]c(O)c(N=NC(=O)c3ccc(NS(=O)(=O)c4cccs4)cc3)c2c1` it is 7.5%; for `COc1ccc(NC(=O)N2CCc3ccccc3C2)cc1OC` it is 8.34%.
Turning to `COc1ccc(C2NC(=O)NC(O)(C(F)(F)F)C2C(=O)c2ccc(C)cc2)cc1` (stereo not shown), the “hERG current change (%, negative = inhibition) at 1uM” value came out at 4.43%.
For the compound `CCC(=O)N1CCc2cc(S(=O)(=O)CCC(=O)N(C)c3ccc(OC)cc3OC)ccc21`, the “hERG current change (%, negative = inhibition) at 1uM” value worked out at 11%.
For `COc1ccc2c(c1)C(C)CC(C)(C)N2C(=O)CSc1ncn[nH]1` (stereo not shown) the value was -0.0177%.
The figure for `CN(CCCNS(=O)(=O)c1cccc2cccnc12)Cc1ccccc1` is 4.6%.
For `Cc1ccc(-c2nc(NCc3ccco3)c3ccccc3n2)cc1` the value was -1.09%; for `Cc1ccc(-n2c(SCC(=O)NCC3CCCO3)nc3ccccc3c2=O)cc1C` (stereo not shown), 13.1%.
Take `COC(=O)c1c(-c2c(Cl)cccc2Cl)noc1C(=O)NNC(=O)N(C)C`: the “hERG current change (%, negative = inhibition) at 1uM” value is 13.6%.
For `CCc1nn(C(C)C(=O)NCc2cccc(OC)c2)c(=O)c2cc3occc3n12` (stereo not shown) the value was 0.704%.
The figure for `CCc1ccc(/C(C)=N/NC(=O)c2ccc(-n3cnnn3)cc2)cc1` is 5.97%.
For `Cc1ccc(C(=O)NNC(=O)CCn2nnc3ccccc32)cc1`, the “hERG current change (%, negative = inhibition) at 1uM” value is recorded as 23.2%.
The figure for `O=c1cc(CCl)nc2sc3ccccc3n12` is 12.1%; for `CN(C)CCCN(C(=O)c1ccc(S(=O)(=O)N2CCCCCC2)cc1)c1nc2c(F)cc(F)cc2s1.Cl` it is 5.63%; for `COc1ccc(N(CC(=O)NCC2CCCO2)S(=O)(=O)c2ccccc2)cc1OC` (stereo not shown) it is 15.3%.
For `COc1ccc(NC(=O)NCCc2ccc(Cl)cc2)cc1OC` the value was 6.66%; for `COc1ccc(Cn2c(=S)[nH]c3ccccc3c2=O)cc1`, 12.5%; for `O=C(C1CC1)N1CCc2cc(Br)cc(S(=O)(=O)NCCCN3CCCC3)c21`, 14.4%.
For `O=C(NCCN1CCCCC1)Nc1cccc(C(F)(F)F)c1` the value was -15.8%; for `Cc1ccccc1N1CC(O)(c2ccccc2)[N+]2=C1SCC2.[Br-]` (stereo not shown), 8.02%.
On to `COCCCN(Cc1ccco1)C(=O)Cn1ncc2c(=O)oc3ccc(C)cc3c21`, for which the “hERG current change (%, negative = inhibition) at 1uM” value was -3.81%.
The figure for `CCC(C)Sc1nc2c(c(=O)[nH]c(=O)n2C)n1CCc1ccccc1` (stereo not shown) is 1.22%.
For `Cc1cccc([C@@H]2[C@@H]3C(=O)N(Cc4ccccc4)C(=O)[C@@H]3[C@]3(C)C(=O)N(c4ccc(Br)cc4)C(=O)N23)c1` the value was 7.83%.
The figure for `N#C/C(=C\C=C\c1ccccc1)C(=O)NCc1ccco1` is 6.06%.
In the case of `CSc1ccccc1NC(=O)CN(c1ccccc1Br)S(C)(=O)=O`, the “hERG current change (%, negative = inhibition) at 1uM” value is 7.75%.
Regarding `O=C(Nc1ccccn1)c1ccc(Br)c(S(=O)(=O)N2CCCCC2)c1`, the “hERG current change (%, negative = inhibition) at 1uM” value is 3.97%.
The figure for `COc1ccc2[nH]c(=O)c(CN(Cc3cccs3)Cc3nnnn3Cc3ccccc3)cc2c1` is 18.9%.
For `CCCCCCCC(=O)NN=C1CCN(Cc2ccccc2)CC1` the value was 11.4%; for `C=CCN(C1CCCCC1)S(=O)(=O)c1ccc2c(c1)oc(=O)n2C`, -4.3%.
For `CCc1c(O)nc(SC2CC(=O)N(c3ccccc3)C2=O)[nH]c1=O` (stereo not shown) the value was 8.68%; for `Cc1c(C(=O)N2CCN(Cc3ccc4c(c3)OCO4)CC2)sc2ncnc(N3CCN(c4ccccc4)CC3)c12`, 19.8%; for `CCOC(=O)c1cc(NC(=O)N(C(C)C)C2CCCCC2)c(C)nc1C`, 2.43%.
With `N#CCCN(CCC#N)C(=S)NC1CC2C=CC1C2` (stereo not shown), the “hERG current change (%, negative = inhibition) at 1uM” value is reported as 6.58%.
Consider `CCn1c2ccccc2c2cc(NC(=O)COC(=O)c3cccc(S(=O)(=O)NC)c3)ccc21`, for which the “hERG current change (%, negative = inhibition) at 1uM” value turned out to be 7.35%.
The figure for `CSc1ncccc1C(=O)OCC(=O)Nc1ccc2c(c1)CCC2` is 12.5%.
For `CCc1cc2c(COC(=O)c3cccc(S(C)(=O)=O)c3)cc(=O)oc2cc1O` the value was 13.7%.
For `COc1ccc(N(CC(=O)N2CCCCCC2)S(=O)(=O)c2ccccc2[N+](=O)[O-])c(OC)c1` the value was 2.98%.
As for `CC(C)(C)c1ccc(OCC(=O)NC2CCS(=O)(=O)C2)cc1` (stereo not shown), the “hERG current change (%, negative = inhibition) at 1uM” value turned out to be 5.17%.
Turning to `Cc1ccc(NC(=O)c2ccc(CSc3ccccn3)cc2)cc1`, the “hERG current change (%, negative = inhibition) at 1uM” value is given as 21.2%.
On to `COc1ccc(C2C(C#N)=C(N)N(c3ccccc3)C3=C2C(=O)CCC3)cc1Cn1cc([N+](=O)[O-])cn1` (stereo not shown), for which the “hERG current change (%, negative = inhibition) at 1uM” value was -1.41%.
The figure for `Cc1ccc(C(=O)NCc2ccc3c(c2)CCO3)cc1C` is 2.48%; for `CN(CC(=O)NCc1ccncc1)S(=O)(=O)c1cc(Cl)ccc1Cl` it is 4.88%.
The figure for `CC(CCc1ccccc1)N(C)CC(O)c1cccc([N+](=O)[O-])c1.Cl` (stereo not shown) is -56.8%.
The figure for `Cc1ccc2sc(N(CCCN(C)C)C(=O)CN3C(=O)c4ccccc4C3=O)nc2c1C.Cl` is 4.92%; for `Nc1nc(O)c(CC(=O)O)s1` it is 16.9%; for `COc1ccc(N(CC(=O)NN=C2CCN(C)CC2)S(=O)(=O)c2ccccc2)c(OC)c1` it is 15.7%.
Take `CCOC(=O)C1CCN(C(=O)Nc2ccc(OC(F)(F)F)cc2)CC1`: the “hERG current change (%, negative = inhibition) at 1uM” value is listed as -8.34%.
The figure for `FC(F)(F)c1cccc(NCc2cn3cccnc3n2)c1` is 5.36%; for `COc1ccccc1NC(=O)COc1ccc(Br)cc1CNCCCN1CCOCC1.Cl` it is -3.06%; for `Cc1cccc2cc(C#N)c(NCCNC(=O)COc3ccccc3)nc12` it is 26.4%.
For `C=CCOC(=O)Nc1snnc1C`, the “hERG current change (%, negative = inhibition) at 1uM” value worked out at 1.92%.
On to `Nc1c(-c2ccccc2)c(CN2CCOCC2)nn1-c1ccc(F)cc1`, for which the “hERG current change (%, negative = inhibition) at 1uM” value came to 3.39%.
The figure for `O=C(NC(=S)Nc1ccccc1N1CCCCC1)c1cccs1` is 16.2%.
For `O=C(CSCc1ccccc1Cl)NNC(=O)c1ccccc1` the value was 11.2%; for `Cc1ccccc1C(=O)NCCc1nnc(SCC(=O)Nc2nc(-c3ccccc3)cs2)n1C`, 6.47%.
The figure for `COc1ccc(/C=N/NC(=S)Nc2ccccc2)cc1COc1cccc(C)c1C` is 17.9%; for `COc1ccc(NC(=O)c2cccnc2Nc2ccc(OC)cc2)cc1` it is 16.9%.
As to `O=C1CCC(=O)N1CN(C(=O)c1ccco1)c1ccc(Cl)c(Cl)c1`, the “hERG current change (%, negative = inhibition) at 1uM” value came out at 10%.
For `O=C(CN1C(=O)CCC1=O)Nc1ccc2c3c(cccc13)CC2` the value was -6.41%; for `COc1ccccc1C(=O)NNC(=O)C(=O)NC1CCCCC1`, 17.9%.
The figure for `CC(=O)Nc1ccc(C(=O)NCC(=O)OCc2c(F)cccc2Cl)cc1` is 19.7%; for `O=C(O)Cn1cc(/C=C2\C(=O)NC(=O)N(Cc3ccco3)C2=O)c2ccccc21` it is 9.63%.
The figure for `CCc1nc(N2CCNCC2)c(C#N)c2c1CSC(C)(C)C2` is 11.5%; for `CO/N=C(\Cn1ncc(NC2CCCCC2)c(Br)c1=O)c1ccc(Cl)cc1` it is -1.74%.
For the compound `Cc1n[nH]c(=O)c2c(NC(=O)CSc3nncs3)oc(C)c12`, the “hERG current change (%, negative = inhibition) at 1uM” value is listed as 19.7%.
For `CC(C)(C#CC(O)(c1ccccc1)c1ccccc1)N1CCCCC1` the value was 11.8%.
The figure for `Cc1nn(Cc2ccccc2Cl)c2sc(C(=O)NCCCn3ccnc3)cc12` is -15.1%; for `COc1ccc(NC(=O)Nc2cc(C)cc(C)c2)cn1` it is -0.814%.
The figure for `COc1cc(/C=N/NC(=O)c2cccc([N+](=O)[O-])c2)ccc1OCc1ccc(C)cc1` is 4.93%.
